The values that follow come from paper PMC2896533 (Nucleic Acids Research, 2010).

The assay concerns the target E. coli GyrB (DNA gyrase B subunit), full length (E. coli). As to the kind of experiment: SEC.

B1: E. coli GyrA(R580A), full length (enzyme)
chain: not shown
For B1, the binding result is “binds”.

B2: E. coli GyrA(P636A), full length (enzyme)
chain: not shown
In the case of B2, the binding result is “binds”.
